Laboratory results as given in PubChem BioAssay AID1508624 (National Center for Advancing Translational Sciences (NCATS), 2021).
The campaign covered roughly 48,000 compounds. About 120 (0.25%) were called active. Not shown: some 4% with an inconclusive outcome. Calls come from the whole dose curve; as a rule, active = well fitted activation curve with a large enough effect; inconclusive = small, poorly fitted or top-dose-only effect, or another doubt; inactive = no such curve, though single readings can be large or run the other way. The list shows a part of the results.

experiment: Primary qHTS for Identification of Small Molecule Activators of Huntingtin-Antisense Promoter Activity; conditions: HEK293 HTT-AS promoter firefly luciferase reporter, 24 h; series mostly up to 57.5 µM; activity change, positive = activation: at the top concentration; note: nearly all actives have a fitted effect of over 55% in size
In short: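 HEK293 cells carrying firefly luciferase reporters were seeded at 2,500 per well in Opti-MEM and cultured for 24 h. They were then treated with compounds at up to 57.5 uM final for 24 h at 37 degrees C before Dual-Glo luminescence readout.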

Activity change, positive = activation, inactive:
CCC(C(=O)NCc1cc(OC)ccc1OC)n1nc(C)c2sc3ccccc3c2c1=O (stereo unspecified) -17%, COc1cccc(C(=O)N2CCC(C(=O)Nc3cccc(Cl)c3)CC2)c1 -4.29%, Cc1cccc(CNC(=O)c2ccc(N3Cc4ccccc4Oc4ncccc43)s2)c1 -23.7%, CN(C)c1cccc(C(=O)N2CCC(c3c[nH]c4ccccc34)(c3c[nH]c4ccccc34)CC2)c1 -3.34%, COc1cc(C(=O)Nc2ccc(NC(=O)c3ccc(C(C)(C)C)cc3)cc2)cc(OC)c1OC -48.9%, O=C(COCc1cc(-c2cccs2)on1)N1CCN(c2ccccc2)CC1 -1.37%, COc1ccccc1C(=O)Nc1ccc2nc(SCCOc3ccccc3C)sc2c1 -18.3%, CC(C)c1ccc(N2C(=O)CSC23C(=O)N(Cc2cccc(F)c2)c2ccccc23)cc1 (stereo unspecified) -13.2%, COc1ccc(OC)c(CNC(=O)C2CCCN(c3ncnc4onc(-c5ccc(F)cc5)c34)C2)c1 (stereo unspecified) -5.53%, Fc1ccc(NCc2nnc3n2CCCCC3)cc1Cl -1.23%, COc1cccc(C(=O)Nc2nc3nc(-c4ccccc4)cc(=O)n3[nH]2)c1 2.1%, O=C1c2oc3ccccc3c(=O)c2C(c2cccc(O)c2)N1c1nncs1 (stereo unspecified) -18.5%, CCOC(=O)c1c(-c2ccc(C)cc2)csc1NC(=O)c1cc(=O)c2cc(C)ccc2o1 -14.9%, O=C(Cn1c(=O)nc(-c2ccccc2)c2ccccc21)NCCc1ccccc1 1.45%, CC(=O)c1ccc(NC(=O)CN2C(=O)CN(C)C(=O)c3ccccc32)cc1 -9.55%, COc1cccc(CNC(=O)C2=C(C)C(=O)OC23CCN(C(C)=O)CC3)c1OC -7.27%, COc1cc(Nc2nc(SCc3ccc(Cl)cc3)nc3ccccc23)cc(OC)c1 -22.5%, COc1ccc(-c2oc3ncn4nc(COc5cccc(C)c5C)nc4c3c2-c2ccc(OC)cc2)cc1 -10.6%, O=C(Nc1c(C(=O)N2CCN(c3ccccc3F)CC2)oc2ccccc12)c1cccc(F)c1 9.51%, Cc1oc(-c2ccc(C(=O)Nc3ccc(F)cc3)cc2)nc1COc1ccccc1 -19.7%, CC1CCCN(c2cc3c(cc2F)c(=O)c(S(=O)(=O)c2cccc(Cl)c2)cn3Cc2ccccc2)C1 (stereo unspecified) -8.15%, COc1ccc(CCNC(=O)C(=O)NCC(c2ccco2)S(=O)(=O)c2ccc(C)cc2)cc1 (stereo unspecified) -10.9%, Cc1cccc(CS(=O)(=O)c2ncc(Cl)c(C(=O)Nc3nnc(C(C)C)s3)n2)c1 -94.6%, CC(C)NC(=O)c1ccc(Cn2c(SCc3ccc(F)cc3)nc3cccnc32)cc1 6.45%, O=C(CCn1c(=O)c2cccn2c2cccnc21)N1CCN(c2cccc(C(F)(F)F)c2)CC1 -37.2%, COC(=O)c1ccc(C2Nc3c(C)cccc3-c3cc(C)nn32)cc1 (stereo unspecified) 6.92% [at 11.5 µM, percent change from vehicle, -100% = no light]
